The other results are listed elsewhere or left out. Repeats are few or missing, and single values can be far off.
tested on: HCC-1187; test: cell viability relative to vehicle (% of vehicle); basal-like triple-negative breast cancer lines; higher = less cytotoxic; conditions: 10 µM; 72 h
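Note: stably firefly luciferase-GFP labeled cells in 96-well plates, viability read as luciferase photon flux after d-luciferin addition, treated wells normalized to vehicle wells, single-dose high-throughput screen.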

| SMILES | cell viability |
| --- | --- |
| O=c1oc2cc(O)ccc2s1 [Tioxolone] | 74.8 |
| CC1(C)O[C@@H]2C[C@H]3[C@@H]4CCC5=CC(=O)C=C[C@]5(C)[C@H]4[C@@H](O)C[C@]3(C)[C@]2(C(=O)CO)O1 [Desonide] | 94.4 |
| O=C(O)[C@H](O)[C@@H](O)C(=O)O.c1cnc2cc3c(cc2n1)C1CNC[C@@H]3C1 [Varenicline Tartrate] | 78.3 |
| CCCNS(=O)(=O)Nc1ncnc(OCCOc2ncc(Br)cn2)c1-c1ccc(Br)cc1 [Macitentan] | 91.5 |
| NCC1OC(OC2C(N)CC(N)C(OC3OC(CO)C(O)C(N)C3O)C2O)C(O)C(O)C1O.O=S(=O)(O)O (configuration not stated) [Kanamycin Sulfate] | 102 |
| COc1cccc2c1C(=O)c1c(O)c3c(c(O)c1C2=O)CC(O)(C(=O)CO)CC3OC1CC(N)C(O)C(C)O1.Cl (configuration not stated) [Doxorubicin (Adriamycin) HCl] | 23.7 |
| CN(C)C(=O)COC(=O)Cc1ccc(OC(=O)c2ccc(N=C(N)N)cc2)cc1.CS(=O)(=O)O [Camostat Mesilate] | 87.8 |
| COC1=CC=C(/C(C2=CC=C(OC)C=C2)=C(Cl)/C3=CC=C(OC)C=C3)C=C1 [Chlorotrianisene] | 90.3 |
| Cc1cccc(N(C)C(=S)Oc2ccc3ccccc3c2)c1 [Tolnaftate] | 87.2 |
| NC(=O)c1ccc(I)c([N+](=O)[O-])c1 [Iniparib (BSI-201)] | 89.2 |
| c1cc(CN2CCCNCCNCCCNCC2)ccc1CN1CCCNCCNCCCNCC1 [Plerixafor (AMD3100)] | 88.7 |
| O=c1[nH]c(=O)n(C2CCCO2)cc1F (configuration not stated) | 113 |
| CCOC(=O)C(CCc1ccccc1)NC(C)C(=O)N1Cc2ccccc2CC1C(=O)O.Cl (configuration not stated) [Quinapril HCl] | 88.8 |
| CC12CCC3c4ccc(O)cc4CCC3C1CCC2OC(=O)CCC1CCCC1 (configuration not stated) [Estradiol Cypionate] | 106 |
| Clc1ccc(C(Cn2ccnc2)OCc2csc3c(Cl)cccc23)c(Cl)c1.O=[N+]([O-])O (configuration not stated) [Sertaconazole nitrate] | 119 |
| Cn1c(=O)cc(N2CCCC(N)C2)n(Cc2cc(F)ccc2C#N)c1=O (configuration not stated) [Trelagliptin] | 101 |
| CCCCc1oc2ccccc2c1C(=O)c1cc(I)c(OCCN(CC)CC)c(I)c1.Cl [Amiodarone HCl] | 88.2 |
| CC(O)C(=O)O.CC(O)C(=O)O.CN1CCN(c2ccc3c(c2)NC(=C2C(=O)N=c4cccc(F)c4=C2N)N3)CC1 [Dovitinib Dilactic acid] | 38.3 |
| CC1C(NC(=O)C(=NOC(C)(C)C(=O)O)c2csc(N)n2)C(=O)N1S(=O)(=O)O (configuration not stated) [Aztreonam] | 106 |
| COc1ccccc1N1CCN(CC(O)COc2cccc3ccccc23)CC1 (configuration not stated) [Naftopidil] | 92.9 |
| CC(NC(=O)C(O)C(C)C)C(=O)NC1C(=O)N(C)CCc2ccccc21 (configuration not stated) | 87.7 |
| CN=C(NC#N)NCCSCc1nc[nH]c1C [Cimetidine] | 98.2 |

tested on: MDA-468; test: as above; conditions: 10 µM; 72 h

| SMILES | cell viability |
| --- | --- |
| CCCc1cc(=O)[nH]c(=S)[nH]1 [Propylthiouracil] | 102 |
| Cl.NC(N)=NC(=O)Cc1c(Cl)cccc1Cl [Guanfacine hydrochloride] | 86.8 |
| COc1cccc2c1C(=O)c1c(O)c3c(c(O)c1C2=O)CC(O)(C(=O)CO)CC3OC1CC(N)C(O)C(C)O1.Cl (configuration not stated) [Epirubicin HCl] | 22.1 |
| Cc1ccccc1N1C(=O)c2cc(S(N)(=O)=O)c(Cl)cc2NC1C (configuration not stated) [Metolazone] | 110 |
| C#CCC(Cc1cnc2nc(N)nc(N)c2n1)c1ccc(C(=O)NC(CCC(=O)O)C(=O)O)cc1 (configuration not stated) [Pralatrexate] | 58.1 |
| CCNC1CN(CCCOC)S(=O)(=O)c2sc(S(N)(=O)=O)cc21 (configuration not stated) [Brinzolamide] | 97.8 |
| COc1cc2c(cc1OC)CC(=O)N(CCCN(C)CC1Cc3cc(OC)c(OC)cc31)CC2.Cl (configuration not stated) [Ivabradine HCl] | 104 |
| CN1C2CCCC1CC(NC(=O)c1nn(C)c3ccccc13)C2 (configuration not stated) [Granisetron] | 82.8 |
| Oc1c(Br)cc(Br)c2cccnc12 [Broxyquinoline] | 26.6 |
| CCOC(=O)C1OC1C(=O)NC(CC(C)C)C(=O)NCCC(C)C (configuration not stated) | 85 |
| C=C1CCC(O)CC1=CC=C1CCCC2(C)C1CCC2C(C)C=CC(C)C(C)C (configuration not stated) [Vitamin D2 (Ergocalciferol)] | 109 |
| Cc1c(C(=O)Nc2ccc(N3CC(C)OC(C)C3)nc2)cccc1-c1ccc(OC(F)(F)F)cc1 (configuration not stated) [LDE225 (NVP-LDE225,Erismodegib)] | 64.2 |
| CCCCCOc1ccc(-c2ccc(-c3ccc(C(=O)N[C@H]4C[C@@H](O)[C@@H](O)NC(=O)[C@@H]5[C@@H](O)[C@@H](C)CN5C(=O)[C@H]([C@@H](C)O)NC(=O)[C@H]([C@H](O)[C@@H](O)c5ccc(O)cc5)NC(=O)[C@@H]5C[C@@H](O)CN5C(=O)[C@H]([C@@H](C)O)NC4=O)cc3)cc2)cc1 [Anidulafungin] | 52.1 |
| CC(=O)OCC(=O)C1(O)CCC2C3CCC4=CC(=O)C=CC4(C)C3C(O)CC21C (configuration not stated) [Prednisolone Acetate] | 153 |
| Cl.Nc1c2c(nc3ccccc13)CCCC2 [Tacrine hydrochloride] | 109 |
| Nc1nccs1 [Aminothiazole] | 86 |
| CC#CCn1c(N2CCCC(N)C2)nc2c1c(=O)n(Cc1nc(C)c3ccccc3n1)c(=O)n2C (configuration not stated) [Linagliptin (BI-1356)] | 85 |
| CC(C)(O/N=C(\C(=O)N[C@@H]1C(=O)N2C(C(=O)[O-])=C(C[n+]3ccccc3)CS[C@H]12)c1csc(N)n1)C(=O)O [Ceftazidime] | 109 |
| O=c1oc2cc(O)ccc2s1 [Tioxolone] | 111 |
| CC1(C)O[C@@H]2C[C@H]3[C@@H]4CCC5=CC(=O)C=C[C@]5(C)[C@H]4[C@@H](O)C[C@]3(C)[C@]2(C(=O)CO)O1 [Desonide] | 131 |

| SMILES | cell viability |
| --- | --- |
| O=C(O)[C@H](O)[C@@H](O)C(=O)O.c1cnc2cc3c(cc2n1)C1CNC[C@@H]3C1 [Varenicline Tartrate] | 105 |
| CCCNS(=O)(=O)Nc1ncnc(OCCOc2ncc(Br)cn2)c1-c1ccc(Br)cc1 [Macitentan] | 69.7 |
| NCC1OC(OC2C(N)CC(N)C(OC3OC(CO)C(O)C(N)C3O)C2O)C(O)C(O)C1O.O=S(=O)(O)O (configuration not stated) [Kanamycin Sulfate] | 86.8 |
| COc1cccc2c1C(=O)c1c(O)c3c(c(O)c1C2=O)CC(O)(C(=O)CO)CC3OC1CC(N)C(O)C(C)O1.Cl (configuration not stated) [Doxorubicin (Adriamycin) HCl] | 27.4 |
| CN(C)C(=O)COC(=O)Cc1ccc(OC(=O)c2ccc(N=C(N)N)cc2)cc1.CS(=O)(=O)O [Camostat Mesilate] | 94.6 |
| COC1=CC=C(/C(C2=CC=C(OC)C=C2)=C(Cl)/C3=CC=C(OC)C=C3)C=C1 [Chlorotrianisene] | 100 |
| Cc1cccc(N(C)C(=S)Oc2ccc3ccccc3c2)c1 [Tolnaftate] | 111 |
| NC(=O)c1ccc(I)c([N+](=O)[O-])c1 [Iniparib (BSI-201)] | 127 |
| c1cc(CN2CCCNCCNCCCNCC2)ccc1CN1CCCNCCNCCCNCC1 [Plerixafor (AMD3100)] | 82 |
| O=c1[nH]c(=O)n(C2CCCO2)cc1F (configuration not stated) | 87.5 |
| CCOC(=O)C(CCc1ccccc1)NC(C)C(=O)N1Cc2ccccc2CC1C(=O)O.Cl (configuration not stated) [Quinapril HCl] | 112 |
| CC12CCC3c4ccc(O)cc4CCC3C1CCC2OC(=O)CCC1CCCC1 (configuration not stated) [Estradiol Cypionate] | 95.2 |
| Clc1ccc(C(Cn2ccnc2)OCc2csc3c(Cl)cccc23)c(Cl)c1.O=[N+]([O-])O (configuration not stated) [Sertaconazole nitrate] | 119 |
| Cn1c(=O)cc(N2CCCC(N)C2)n(Cc2cc(F)ccc2C#N)c1=O (configuration not stated) [Trelagliptin] | 92.2 |
| CCCCc1oc2ccccc2c1C(=O)c1cc(I)c(OCCN(CC)CC)c(I)c1.Cl [Amiodarone HCl] | 98.4 |
| CC(O)C(=O)O.CC(O)C(=O)O.CN1CCN(c2ccc3c(c2)NC(=C2C(=O)N=c4cccc(F)c4=C2N)N3)CC1 [Dovitinib Dilactic acid] | 44.4 |
| CC1C(NC(=O)C(=NOC(C)(C)C(=O)O)c2csc(N)n2)C(=O)N1S(=O)(=O)O (configuration not stated) [Aztreonam] | 88.2 |
| COc1ccccc1N1CCN(CC(O)COc2cccc3ccccc23)CC1 (configuration not stated) [Naftopidil] | 107 |
| CC(NC(=O)C(O)C(C)C)C(=O)NC1C(=O)N(C)CCc2ccccc21 (configuration not stated) | 88.6 |
| CN=C(NC#N)NCCSCc1nc[nH]c1C [Cimetidine] | 102 |

Reference: the supplement of paper PMC8512760
